# Some of the results follow. Sequences were assembled here from the parent chain. Values near 0.05 are background.
# B1: TEV protease; numbered along this chain (parent)
# chain: MGESLFKGPRDYNPISSSICHLTNESDGHTTSLYGIGFGPFIITNKHLFRRNNGTLVVQSLHGVFKVKDTTTLQQHLVDGRDMIIIRMPKDFPPFPQKLKFREPQREERICLVTTNFQTKSMSSMVSDTSCTFPSGDGIFWKHWIQTKDGQCGSPLVSTRDGFIVGIHSASNFTNTNNYFTSVPKNFMELLTNQEAQQWVSGWRLNADSVLWGGHKVFMVKPEEPFQPVKEATQL
# Variants of: B1
# Assay: raw area under fraction-flipped curve 0-4 h after induction (AUC4h, not background-subtracted), DNA-recorder readout of cleavage of the substrate (dimensionless); higher = more cleavage of the substrate by the protease variant
# Details: temperature: 34 °C; time window: 0-4 h after rhamnose induction
# 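Note: Bxb1 expression induced with 0.2% (w/v) L-rhamnose at OD600 near 0.5, cultures sampled hourly, flipped fraction per protease–substrate barcode pair counted by paired-end Illumina sequencing.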
Variant,area with substrate EALYFQS,area with substrate ECLYFQS,area with substrate EDLYFQS,area with substrate EELYFQS,area with substrate EGLYFQS,area with substrate EILYFQS,area with substrate EKLYFQS,area with substrate EMLYFQS,area with substrate ERLYFQS,area with substrate ESLYFQS,area with substrate ETLYFQS,area with substrate EVLYFQS,area with substrate EFLYFQS,area with substrate EHLYFQS,area with substrate EQLYFQS,area with substrate EWLYFQS,area with substrate EYLYFQS,area with substrate EPLYFQS,area with substrate ELLYFQS
MGESLFKGPRDYNPISSSICHLTNESDGHTTSLYGIGFGPFIITNKHLFRRNNGTLVVQSLHGVFKVKDTTTLQQHLVDGRDMIIIRMPKDFPPFPQKLKFREPQREERICLVTTNFQTKSMSSMVSDTSCTFPSGDGIFWKHWIQTKDGQCGSPLVSTRDGFIVGIHSASNFTNTNNYFTSVPKNFMELLTNQEADQWVSGWRLNADSVLWGGHKVFMVKPEEPFQPVKEATQL [Q197D],0.119,0.0939,0.0956,0.12,0.0665,0.0547,0.0962,0.0821,0.0918,0.0753,0.109,0.0693,–,–,–,–,–,–,–
MGESLFKGPRDYNPISSSICHLTNESDGHTTSLYGIGFGPFIITNKHLFRRNNGTLVVQSLHGVFKVKDTTTLQQHLVDGRDMIIIRMPKDFPPFPQKLKFREPQREERICLVTTNFQTKSMSSMVSDTSCTFPSGDGIFWKHWIQTKDGQCGSPLVSTRDGFIVGIHSASNFTNTNNYFTSVPKNFMELLMNQEAQQWVSGWRLNADSVLWGGHKVFMVKPEEPFQPVKEATQL [T192M],0.145,0.107,0.105,0.0921,–,0.111,0.15,0.0792,0.0957,0.094,0.115,0.103,0.0697,0.105,0.0806,0.102,0.116,–,–
MGESLFKGPRDYNPISSSICHLTNESDGHTTSLYGIGFGPFIITNKHLFRRNNGTLVVQSLHGVFKVKDTTTLQQHLVDGRDMIIIRMPKDFPPFPQKLKFREPQREERICLVTTNFQTKSMSSMVSDTSCTFPSGDGIFWKHWIQTKDGQCGSPLVSTRDGFIVGIHSASNFTNTNNYFTSVPKNFMELLTNQEAQQWVSGWLLNADSVLWGGHKVFMVKPEEPFQPVKEATQL [R204L],0.117,0.105,0.13,0.0738,0.0971,0.0842,0.11,0.145,0.0926,0.0981,–,0.0813,–,0.128,0.117,0.0877,0.112,0.104,–
MGESLFKGPRDYNPISSSICHLTNESDGHTTSLYGIGFGPFIITNKHLFRRNNGTLVVQSLHGVFKVKDTTTLQQHLVDGRDMIIIRMPKDFPPFPQKLKFREPQREERICLVTTNFQTKSMSSMVSDTSCTFPSGDGIFWKHWIQTKDGQCGSPLVSTRDGFIVGIHSASNFTNTNNYFTSVPKNFMELLTNQEAQQWVSGWFLNADSVLWGGHKVFMVKPEEPFQPVKEATQL [R204F],0.13,0.0973,0.169,0.125,0.0729,0.133,0.122,0.125,0.103,0.111,0.0974,0.0948,0.138,–,0.133,0.108,–,0.147,0.0791
MGESLFKGPRDYNPISSSICHLTNESDGHTTSLYGIGFGPFIITNKHLFRRNNGTLVVQSLHGVFKVKDTTTLQQHLVDGRDMIIIRMPKDFPPFPQKLKFREPQREERICLVTTNFQTKSMSSMVSDTSCTFPSGDGIFWKHWIQTKDGQCGSPLVSTRDGFIVGIHSASNFTNTNNYFTSVPKNFMELLTNQEAQQWVRGWRLNADSVLWGGHKVFMVKPEEPFQPVKEATQL [S201R],0.103,0.105,0.129,–,0.0872,0.0956,0.116,–,0.114,0.111,–,0.0937,0.096,0.0938,0.114,0.0965,0.079,–,0.0848
MGESLFKGPRDYNPISSSICHLTNESDGHTTSLYGIGFGPFIITNKHLFRRNNGTLVVQSLHGVFKVKDTTTLQQHLVDGRDMIIIRMPKDFPPFPQKLKFREPQREERICLVTTNFQTKSMSSMVSDTSCTFPSGDGIFWKHWIQTKDGQCGSPLVSTRDGFIVGIHSASNFTNTNNYFTSVPKNFMELLTNQEAQQWVSGNRLNADSVLWGGHKVFMVKPEEPFQPVKEATQL [W203N],0.0667,0.0518,0.0744,0.0612,–,0.054,–,0.0638,0.0596,0.0527,0.0556,0.0477,–,0.06,0.0604,0.0705,–,0.0439,–
MGESLFKGPRDYNPISSSICHLTNESDGHTTSLYGIGFGPFIITNKHLFRRNNGTLVVQSLHGVFKVKDTTTLQQHLVDGRDMIIIRMPKDFPPFPQKLKFREPQREERICLVTTNFQTKSMSSMVSDTSCTFPSGDGIFWKHWIQTKDGQCGSPLVSTRDGFIVGIHSASNFTNTNNYFTSVPKNFMELLTNQEAQQWVSGGRLNADSVLWGGHKVFMVKPEEPFQPVKEATQL [W203G],0.0653,0.0548,0.0696,–,–,0.0528,0.0636,0.0612,0.0725,0.0617,–,0.0591,0.0495,0.0662,0.0607,0.0752,0.0839,–,–
MGESLFKGPRDYNPISSSICHLTNESDGHTTSLYGIGFGPFIITNKHLFRRNNGTLVVQSLHGVFKVKDTTTLQQHLVDGRDMIIIRMPKDFPPFPQKLKFREPQREERICLVTTNFQTKSMSSMVSDTSCTFPSGDGIFWKHWIQTKDGQCGSPLVSTRDGFIVGIHSASNFTNTNNYFTSVPKNFMELLTNQEAQQWVSGWRGNADSVLWGGHKVFMVKPEEPFQPVKEATQL [L205G],0.0718,0.0645,0.0881,0.0395,0.0735,–,0.0773,0.0563,0.0668,0.0693,0.0617,0.0523,–,0.0821,–,–,0.0598,–,–
MGESLFKGPRDYNPISSSICHLTNESDGHTTSLYGIGFGPFIITNKHLFRRNNGTLVVQSLHGVFKVKDTTTLQQHLVDGRDMIIIRMPKDFPPFPQKLKFREPQREERICLVTTNFQTKSMSSMVSDTSCTFPSGDGIFWKHWIQTKDGQCGSPLVSTRDGFIVGIHSASNFTNTNNYFTSVPKNFMELLTNQEAQQWVSGWRMNADSVLWGGHKVFMVKPEEPFQPVKEATQL [L205M],0.128,0.112,0.184,0.146,0.139,0.0999,–,0.134,0.106,0.13,0.102,0.102,–,0.128,0.118,0.109,0.12,–,0.125
MGESLFKGPRDYNPISSSICHLTNESDGHTTSLYGIGFGPFIITNKHLFRRNNGTLVVQSLHGVFKVKDTTTLQQHLVDGRDMIIIRMPKDFPPFPQKLKFREPQREERICLVTTNFQTKSMSSMVSDTSCTFPSGDGIFWKHWIQTKDGQCGSPLVSTRDGFIVGIHSASNFTNTNNYFTSVPKNFMELLTNQKAQQWVSGWRLNADSVLWGGHKVFMVKPEEPFQPVKEATQL [E195K],0.112,0.0969,0.112,–,0.0865,0.0973,0.0788,0.119,0.0909,0.0913,0.0804,0.0846,0.105,0.0868,–,–,–,0.111,0.0846
MGESLFKGPRDYNPISSSICHLTNESDGHTTSLYGIGFGPFIITNKHLFRRNNGTLVVQSLHGVFKVKDTTTLQQHLVDGRDMIIIRMPKDFPPFPQKLKFREPQREERICLVTTNFQTKSMSSMVSDTSCTFPSGDGIFWKHWIQTKDGQCGSPLVSTRDGFIVGIHSASNFTNTNNYFTSVPKNFMELLTNFEAQQWVSGWRLNADSVLWGGHKVFMVKPEEPFQPVKEATQL [Q194F],0.141,0.0982,0.101,0.115,–,0.0834,–,–,0.125,0.0932,–,–,–,0.0749,0.108,–,–,–,–
MGESLFKGPRDYNPISSSICHLTNESDGHTTSLYGIGFGPFIITNKHLFRRNNGTLVVQSLHGVFKVKDTTTLQQHLVDGRDMIIIRMPKDFPPFPQKLKFREPQREERICLVTTNFQTKSMSSMVSDTSCTFPSGDGIFWKHWIQTKDGQCGSPLVSTRDGFIVGIHSASNFTNTNNYFTSVPKNFMELLTNQEAQQEVSGWRLNADSVLWGGHKVFMVKPEEPFQPVKEATQL [W199E],0.0606,0.0633,0.0681,0.0655,0.052,0.0677,0.0665,–,–,0.0691,–,0.0541,–,0.0688,0.0629,–,0.0529,–,0.0729
MGESLFKGPRDYNPISSSICHLTNESDGHTTSLYGIGFGPFIITNKHLFRRNNGTLVVQSLHGVFKVKDTTTLQQHLVDGRDMIIIRMPKDFPPFPQKLKFREPQREERICLVTTNFQTKSMSSMVSDTSCTFPSGDGIFWKHWIQTKDGQCGSPLVSTRDGFIVGIHSASNFTNTNNYFTSVPKNFMELLTNQEAQQNVSGWRLNADSVLWGGHKVFMVKPEEPFQPVKEATQL [W199N],0.0907,0.0583,0.0799,–,–,0.037,0.0455,0.0544,0.0729,0.0673,–,–,0.0645,–,0.0639,–,–,0.0619,0.0704
MGESLFKGPRDYNPISSSICHLTNESDGHTTSLYGIGFGPFIITNKHLFRRNNGTLVVQSLHGVFKVKDTTTLQQHLVDGRDMIIIRMPKDFPPFPQKLKFREPQREERICLVTTNFQTKSMSSMVSDTSCTFPSGDGIFWKHWIQTKDGQCGSPLVSTRDGFIVGIHSASNFTNTNNYFTSVPKNFMELATNQEAQQWVSGWRLNADSVLWGGHKVFMVKPEEPFQPVKEATQL [L191A],0.135,0.0686,0.0991,0.0658,0.0649,0.0795,0.0718,0.0687,0.0615,0.0652,0.0669,0.0404,0.0649,–,0.0688,–,–,0.062,0.0648
MGESLFKGPRDYNPISSSICHLTNESDGHTTSLYGIGFGPFIITNKHLFRRNNGTLVVQSLHGVFKVKDTTTLQQHLVDGRDMIIIRMPKDFPPFPQKLKFREPQREERICLVTTNFQTKSMSSMVSDTSCTFPSGDGIFWKHWIQTKDGQCGSPLVSTRDGFIVGIHSASNFTNTNNYFTSVPKNFMELFTNQEAQQWVSGWRLNADSVLWGGHKVFMVKPEEPFQPVKEATQL [L191F],0.1,0.104,0.153,0.104,–,0.0973,0.0812,0.0992,0.0912,0.101,0.109,0.0819,0.103,0.107,0.103,0.105,0.0887,–,0.0885
MGESLFKGPRDYNPISSSICHLTNESDGHTTSLYGIGFGPFIITNKHLFRRNNGTLVVQSLHGVFKVKDTTTLQQHLVDGRDMIIIRMPKDFPPFPQKLKFREPQREERICLVTTNFQTKSMSSMVSDTSCTFPSGDGIFWKHWIQTKDGQCGSPLVSTRDGFIVGIHSASNFTNTNNYFTSVPKNFMELYTNQEAQQWVSGWRLNADSVLWGGHKVFMVKPEEPFQPVKEATQL [L191Y],0.0695,0.058,0.0782,0.0651,0.083,0.0658,0.0604,0.0683,0.0611,0.0653,–,0.0619,0.0642,–,0.0691,0.0911,–,–,0.0627
MGESLFKGPRDYNPISSSICHLTNESDGHTTSLYGIGFGPFIITNKHLFRRNNGTLVVQSLHGVFKVKDTTTLQQHLVDGRDMIIIRMPKDFPPFPQKLKFREPQREERICLVTTNFQTKSMSSMVSDTSCTFPSGDGIFWKHWIQTKDGQCGSPLVSTRDGFIVGIHSASNFTNTNNYFTSVPKNFMELKTNQEAQQWVSGWRLNADSVLWGGHKVFMVKPEEPFQPVKEATQL [L191K],0.0668,0.0559,0.113,–,0.0538,0.0329,0.0497,0.0608,0.058,0.0659,0.0512,0.0575,0.0324,0.069,0.0533,0.0591,0.0444,0.0556,0.0615
MGESLFKGPRDYNPISSSICHLTNESDGHTTSLYGIGFGPFIITNKHLFRRNNGTLVVQSLHGVFKVKDTTTLQQHLVDGRDMIIIRMPKDFPPFPQKLKFREPQREERICLVTTNFQTKSMSSMVSDTSCTFPSGDGIFWKHWIQTKDGQCGSPLVSTRDGFIVGIHSASNFTNTNNYFTSVPKNFMELLTNQEAQQWVSQWRLNADSVLWGGHKVFMVKPEEPFQPVKEATQL [G202Q],0.0716,0.0763,0.0854,0.0711,–,0.0517,0.0717,0.0626,–,0.0743,0.0897,0.0763,0.112,0.0699,0.0612,–,–,0.0669,–

# Source: the supplement of paper PMC12217912
